# Sequences with one replicate were seen in a single cluster, so their values are uncertain.
# Tested on: ATP
# Assay: switch fluorescence ratio, 500 uM ATP over buffer (Cy3 cluster intensity, sum of 5 cycles each) (fold (ratio)); higher = stronger signal-on switching upon ATP binding; sequences stand for … in TCGTCGGCAGCGTCAGATGTGTATAAGAGACAGTTTTTTTTTTTTTTTTTTTTTTTTT…TC
# Conditions: aptamer strand: ATP DNA aptamer (quencher-CACCTGGGGGAGTATTGCGGAGGAAGG + anchor), 100 nM annealed; ATP concentration: 500 uM; one replicate
# In short: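 Values give the fluorescence ratio for each switch-domain sequence, averaged from per-cluster ratios of summed target-cycle to summed buffer-cycle Cy3 intensity. The Cy3-labelled switching-strand clusters sat on a modified Illumina MiSeq flow-cell, were annealed to 100 nM quencher-labelled ATP aptamer, and were imaged in selection buffer, then after 15 min with 500 uM ATP at 22 °C. Five cycles ran with NaOH stripping and re-annealing between them, and clusters outside 100-1000 RFU were excluded.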
# 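Further: ATP exposure 15 min at 22 °C before imaging.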
row,Sequence,switch fluorescence ratio
1,CCATTAACGT,1.03
2,CCATTAGAC,1.02
3,CCATTAGACT,1.01
4,CCATTCACTC,1.05
5,CCATTCCAGG,2.09
6,CCATTCGTAG,1
7,CCATTGACGC,1.2
8,CCATTTAACT,0.987
9,CCATTTCGC,1.03
10,CCATTTCGCT,1.07
11,CCCAACGACA,1.21
12,CCCAACTTCC,1.09
13,CCCACTTCAT,1.08
14,CCCAGCGTAA,1.74
15,CCCAGGTACC,1.1
16,CCCAGTTATT,1.02
17,CCCATACCCC,1.13
18,CCCATGGCAG,1.02
19,CCCATGGCCT,1.1
20,CCCATTCGAA,1.01
21,CCCATTGCGG,0.988
22,CCCCACAGCC,1.3
23,CCCCAGAGCC,1.41
24,CCCCATACCA,1.16
25,CCCCCCCTAA,1.55
26,CCCCGAGGCG,2.39

row,Sequence,switch fluorescence ratio
1,CCCCGGGTAC,2.02
2,CCCCGTTAGC,3.15
3,CCCCTAATAG,1.88
4,CCCCTAATC,1.21
5,CCCCTAGGGC,1.15
6,CCCCTCGACT,1.04
7,CCCCTCGGCC,1.2
8,CCCCTCGTTA,1.06
9,CCCGAAATTT,0.991
10,CCCGAAGGCT,0.989
11,CCCGAGCCAG,1.06
12,CCCGATAGCA,1.33
13,CCCGCCGCGG,1.97
14,CCCGCTTTCA,1.24
15,CCCGGAATGG,1.06
16,CCCGGATACT,2.48
17,CCCGGATAGT,1.07
18,CCCGGGGTTG,1.04
19,CCCGGTATGG,0.986
20,CCCGGTCCTG,1.03
21,CCCGTACAAT,1.57
22,CCCGTACAGT,1.04
23,CCCGTTCTGT,1.01
24,CCCGTTGCAG,0.964
25,CCCGTTTCCA,0.947
26,CCCTAAAAAA,0.99

row,Sequence,switch fluorescence ratio
1,CCCTAAACGA,1.02
2,CCCTACGTTC,1.54
3,CCCTAGGATG,1.46
4,CCCTAGGGGG,1.53
5,CCCTAGTAAT,2
6,CCCTCACATT,1.03
7,CCCTCATTAT,1.01
8,CCCTCCGGGT,2.36
9,CCCTGCAACG,1.8
10,CCCTGTCAGC,1.18
11,CCCTTAGCCA,0.997
12,CCCTTAGGAG,1.03
13,CCCTTCAAAC,1.28
14,CCCTTCACTT,1.05
15,CCCTTCGGTC,1.11
16,CCCTTGTGTT,1.08
17,CCCTTTATCC,1.09
18,CCGAA,1.01
19,CCGAAATCCA,1.36
20,CCGAACCCGG,1.17
21,CCGAACGGGG,1.66
22,CCGAAGGGTC,1.19
23,CCGAATAATC,4.19
24,CCGAATTAGA,1.11
25,CCGACATTCG,1.02
26,CCGACTACTG,1.01

row,Sequence,switch fluorescence ratio
1,CCGACTTGGG,1.03
2,CCGACTTTCC,2.54
3,CCGAGACATG,1.1
4,CCGAGATGCG,1.14
5,CCGAGGGTCT,1.25
6,CCGAGGTCAG,2.03
7,CCGAGTGATG,1.48
8,CCGAGTGTTG,1.03
9,CCGATCCGGG,1.02
10,CCGATGTTTA,1.14
11,CCGATTTTCA,1.04
12,CCGCAGCCAA,2.63
13,CCGCAGGATT,3.86
14,CCGCAGTCCT,4.64
15,CCGCCCGAGG,1.06
16,CCGCCGTTAC,5.96
17,CCGCCTTTGT,1.15
18,CCGCGACAAA,1.91
19,CCGCGCGCGG,2.01
20,CCGCGCGTCG,1.07
21,CCGCGGTGTG,1.08
22,CCGCGTGTTA,1.02
23,CCGCTGAGTG,1.49
24,CCGCTTTAGG,1.11
25,CCGGAAAGAT,1.04
26,CCGGAACGTA,1.07

row,Sequence,switch fluorescence ratio
1,CCGGAAGTTC,2.87
2,CCGGACGGAT,0.968
3,CCGGAGGATC,1.54
4,CCGGAGTGGG,4.56
5,CCGGAGTTGT,5.13
6,CCGGATAGG,1.04
7,CCGGATGCCC,1.07
8,CCGGCCATAA,2.11
9,CCGGCCCCCG,1.25
10,CCGGCGACGT,0.952
11,CCGGCGAGGA,1.6
12,CCGGCTCCGT,1.29
13,CCGGGAAGTG,1.05
14,CCGGGAATAA,1.37
15,CCGGGACGGG,1.05
16,CCGGGCGGTT,1.01
17,CCGGGCTTAA,1.61
18,CCGGGCTTTG,1.01
19,CCGGGGGTCT,0.999
20,CCGGGTAAAT,1.07
21,CCGGGTTCGG,0.988
22,CCGGTACGAT,1.15
23,CCGGTACTGG,1.05
24,CCGGTAGCCA,1.8
25,CCGGTATAAA,1.06
26,CCGGTATTGC,2.23

row,Sequence,switch fluorescence ratio
1,CCGGTCGGGA,0.98
2,CCGGTGATCG,1.09
3,CCGGTGCCCA,1.14
4,CCGGTGTTGG,1.04
5,CCGGTTAAAT,1.08
6,CCGTAAAATA,1.14
7,CCGTACAGGT,1.14
8,CCGTACAGTC,1.44
9,CCGTACCACT,1.26
10,CCGTACCGGT,1.03
11,CCGTAGTTGT,4.05
12,CCGTATGTCC,1.02
13,CCGTCACCGT,1.11
14,CCGTCACGCG,1.31
15,CCGTCAGTGG,1.38
16,CCGTCGGTG,1.1
17,CCGTCTTAGT,1.01
18,CCGTGCAAGG,2.79
19,CCGTGCTGGA,1.05
20,CCGTGGGACA,1.06
21,CCGTGGTATG,1.04
22,CCGTGGTATT,1.16
23,CCGTTAACGC,1.23
